The list shows a part of the results.

This assay addresses T1, MBP-FoxP1dN (Mus musculus, UniProt P58462 326-579).
T1 sequence: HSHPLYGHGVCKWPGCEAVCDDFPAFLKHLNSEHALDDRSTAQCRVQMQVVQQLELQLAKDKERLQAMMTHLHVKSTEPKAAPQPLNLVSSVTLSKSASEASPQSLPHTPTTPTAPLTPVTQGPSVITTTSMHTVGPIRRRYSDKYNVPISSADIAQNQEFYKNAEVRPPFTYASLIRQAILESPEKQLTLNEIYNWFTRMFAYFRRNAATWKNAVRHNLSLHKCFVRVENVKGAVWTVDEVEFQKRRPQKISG
In words: PD-seq (MBP pull-down with sequencing); 20 mM Tris-HCl pH 7.5, 100 mM NaCl, 1.5 mM MgCl2, 0.4 uM protein, 0.1 uM dsDNA library, 30 min, room temperature, amylose pull-down; high values mean tight binding. Particulars: protein: recombinant; tags: His6-MBP; chain copies: 2; dsDNA, one strand shown. Put shortly: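 Protein and DNA were mixed at 0.4 µM and 0.1 µM and held for 30 min at room temperature in Tris pH 7.5 buffer with NaCl and MgCl2; the protein was a His6-MBP-tagged, N-terminally truncated mouse FoxP3 or FoxP1 fragment from E. coli, and the DNA a Klenow-filled double-stranded degenerate library. Amylose resin captured the complexes, which were washed three times. Binding is read as reads-per-million enrichment of pull-down versus input after Illumina sequencing, with replicates pooled.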
With “GATGATTGTTCTCCCAGCTGATGAATTCCTACGATCGAGTAAACAAATTTTCCTAATCTTTCTGTTCAAGCGCCATCTAC”, the binding signal is 0.862 RPM ratio (pull-down/input). The value for “GATGATTGTTCTCCCAGCTGATGAATTTCGGGCCTCGAGTAAACAAATTTTCCTAATCTTTCTGTTCAAGCGCCATCTAC” was 0.82 RPM ratio (pull-down/input); that for “GATGATTGTTCTCCCAGCTGATGAATTGTATGAATCGAGTAAACAAATTTTCCTAATCTTTCTGTTCAAGCGCCATCTAC” was 1.04 RPM ratio (pull-down/input). Under “GATGATTGTTCTCCCAGCTGATGAATTGGAGCTGTCGAGTAAACAAATTTTCCTAATCTTTCTGTTCAAGCGCCATCTAC” stands 0.821 RPM ratio (pull-down/input).

With “GATGATTGTTCTCCCAGCTGATGAATTATCCGGCTCGAGTAAACAAATTTTCCTAATCTTTCTGTTCAAGCGCCATCTAC”, the binding signal was 0.805 RPM ratio (pull-down/input). The value for “GATGATTGTTCTCCCAGCTGATGAATTGGATCTATCGAGTAAACAAATTTTCCTAATCTTTCTGTTCAAGCGCCATCTAC” was 0.875 RPM ratio (pull-down/input). Regarding “GATGATTGTTCTCCCAGCTGATGAATTGTGGCATTCGAGTAAACAAATTTTCCTAATCTTTCTGTTCAAGCGCCATCTAC”, the binding signal was 1.37 RPM ratio (pull-down/input). Turning to “GATGATTGTTCTCCCAGCTGATGAATTGCAGACTTCGAGTAAACAAATTTTCCTAATCTTTCTGTTCAAGCGCCATCTAC”, the binding signal is 1.11 RPM ratio (pull-down/input).

In the case of “GATGATTGTTCTCCCAGCTGATGAATTTGAGTCTTCGAGTAAACAAATTTTCCTAATCTTTCTGTTCAAGCGCCATCTAC”, the binding signal was 0.878 RPM ratio (pull-down/input).

On to “GATGATTGTTCTCCCAGCTGATGAATTGGGGCCTTCGAGTAAACAAATTTTCCTAATCTTTCTGTTCAAGCGCCATCTAC”, for which the binding signal is 0.842 RPM ratio (pull-down/input). The value for “GATGATTGTTCTCCCAGCTGATGAATTTCGTTCGTCGAGTAAACAAATTTTCCTAATCTTTCTGTTCAAGCGCCATCTAC” was 0.832 RPM ratio (pull-down/input); that for “GATGATTGTTCTCCCAGCTGATGAATTCATGATCTCGAGTAAACAAATTTTCCTAATCTTTCTGTTCAAGCGCCATCTAC” was 0.863 RPM ratio (pull-down/input).

For “GATGATTGTTCTCCCAGCTGATGAATTCAAAGGATCGAGTAAACAAATTTTCCTAATCTTTCTGTTCAAGCGCCATCTAC”, the binding signal is 0.728 RPM ratio (pull-down/input). The value for “GATGATTGTTCTCCCAGCTGATGAATTCAGAACTTCGAGTAAACAAATTTTCCTAATCTTTCTGTTCAAGCGCCATCTAC” was 0.799 RPM ratio (pull-down/input); that for “GATGATTGTTCTCCCAGCTGATGAATTGAAGATCTCGAGTAAACAAATTTTCCTAATCTTTCTGTTCAAGCGCCATCTAC” was 0.814 RPM ratio (pull-down/input).

With “GATGATTGTTCTCCCAGCTGATGAATTCTTCGACTCGAGTAAACAAATTTTCCTAATCTTTCTGTTCAAGCGCCATCTAC”, the binding signal is 0.817 RPM ratio (pull-down/input). Turning to “GATGATTGTTCTCCCAGCTGATGAATTTGGTACTTCGAGTAAACAAATTTTCCTAATCTTTCTGTTCAAGCGCCATCTAC”, the binding signal was 0.95 RPM ratio (pull-down/input).

For the sequence “GATGATTGTTCTCCCAGCTGATGAATTTATTTACTCGAGTAAACAAATTTTCCTAATCTTTCTGTTCAAGCGCCATCTAC”, the binding signal is 2.5 RPM ratio (pull-down/input).

Turning to “GATGATTGTTCTCCCAGCTGATGAATTACTAGAGTCGAGTAAACAAATTTTCCTAATCTTTCTGTTCAAGCGCCATCTAC”, the binding signal was 1.07 RPM ratio (pull-down/input). The value for “GATGATTGTTCTCCCAGCTGATGAATTGGCTTTGTCGAGTAAACAAATTTTCCTAATCTTTCTGTTCAAGCGCCATCTAC” was 0.881 RPM ratio (pull-down/input); that for “GATGATTGTTCTCCCAGCTGATGAATTCCAGCCGTCGAGTAAACAAATTTTCCTAATCTTTCTGTTCAAGCGCCATCTAC” was 0.696 RPM ratio (pull-down/input).

On to “GATGATTGTTCTCCCAGCTGATGAATTGAAAAACTCGAGTAAACAAATTTTCCTAATCTTTCTGTTCAAGCGCCATCTAC”, for which the binding signal is 0.813 RPM ratio (pull-down/input). The value for “GATGATTGTTCTCCCAGCTGATGAATTGAAAACGTCGAGTAAACAAATTTTCCTAATCTTTCTGTTCAAGCGCCATCTAC” was 1.02 RPM ratio (pull-down/input); that for “GATGATTGTTCTCCCAGCTGATGAATTTATCCTATCGAGTAAACAAATTTTCCTAATCTTTCTGTTCAAGCGCCATCTAC” was 1.07 RPM ratio (pull-down/input); that for “GATGATTGTTCTCCCAGCTGATGAATTAAAGTACTCGAGTAAACAAATTTTCCTAATCTTTCTGTTCAAGCGCCATCTAC” was 0.922 RPM ratio (pull-down/input). As for “GATGATTGTTCTCCCAGCTGATGAATTTAGGTACTCGAGTAAACAAATTTTCCTAATCTTTCTGTTCAAGCGCCATCTAC”, the binding signal is 0.947 RPM ratio (pull-down/input). Under “GATGATTGTTCTCCCAGCTGATGAATTCTCGGCGTCGAGTAAACAAATTTTCCTAATCTTTCTGTTCAAGCGCCATCTAC” stands 0.815 RPM ratio (pull-down/input). The value for “GATGATTGTTCTCCCAGCTGATGAATTGCCTCCTTCGAGTAAACAAATTTTCCTAATCTTTCTGTTCAAGCGCCATCTAC” was 1.02 RPM ratio (pull-down/input).

“GATGATTGTTCTCCCAGCTGATGAATTCAGCGCATCGAGTAAACAAATTTTCCTAATCTTTCTGTTCAAGCGCCATCTAC”: the binding signal was 1.16 RPM ratio (pull-down/input).

Take “GATGATTGTTCTCCCAGCTGATGAATTGATAGTGTCGAGTAAACAAATTTTCCTAATCTTTCTGTTCAAGCGCCATCTAC”: the binding signal was 1.07 RPM ratio (pull-down/input). Under “GATGATTGTTCTCCCAGCTGATGAATTTATGGTTTCGAGTAAACAAATTTTCCTAATCTTTCTGTTCAAGCGCCATCTAC” stands 1.16 RPM ratio (pull-down/input).
